According to US11648310B2, “Combination of anti-FGFR4-antibody and bile acid sequestrant” (Daiichi Sankyo Europe GmbH, priority 2015, dated 2023):

Key:
[1] = test system: Cyp7A1 (liver); test: Liver Cyp7A1 RNA expression by quantitative real-time PCR at end of study; type: in vivo, cynomolgus monkey; details: all treatment groups, versus untreated control; FIG. 7
From the text: (§1) In order to find ort whether any toxic side effects of FGFR4 inhibition are due to elevated bile acid levels, the effect of co-administering agents which interfere with bile acid levels was examined. […] For reducing bile acid levels, the bile acid sequestrant colestyramine (Quantalan™) was used. Ursodeoxycholic acid (Ursofalk™) was used as a second compound for increasing the transport of bile acids out of the liver. Ursodeoxycholic acid is a hydrophilic bile acid that increases bile acid transporter expression and plasma membrane translocation in the liver, (palliative compounds 1 and 2).
(§2) The study design included four cynomolgus monkeys (two male, two female) per group. The animals were assigned to the following groups
(§3) Duration and frequency: three administrations at 7-day interval (i.e. day 0, day 7 and day 14). The first day of dosing was designated as day 0. […]
(§4) The test animals were examined for clinical signs, liver enzymes, bile acid levels and FGF19. FGF19 serum levels were determined using quantiquine human FGF19 ELISA from RND according to the manufacturer's instructions. RNA expression of cyno liver and ileum samples for Cyp7A1 (liver) and FGF19 (Ileum) were determined using the High-Capacity RNA-to-cDNA Kit (Applied Biosystems/Life Technologies) followed by subsequent quantitative real-time PCR. […]

[2] = test system: FGF19 (Ileum); test: Ileum FGF19 RNA expression by quantitative real-time PCR at end of study; type: in vivo, cynomolgus monkey; details: FGFR4 antibody alone; FIG. 8
From the text: as §1, §2, §3, §4

[3] = cynomolgus monkey, in vivo
From the text: FIG. 6: Human IgG in monkey serum. The results shown were obtained for the combination of male and female animals. […] In order to find ort whether any toxic side effects of FGFR4 inhibition are due to elevated bile acid levels, the effect of co-administering agents which interfere with bile acid levels was examined. […] For reducing bile acid levels, the bile acid sequestrant colestyramine (Quantalan™) was used. Ursodeoxycholic acid (Ursofalk™) was used as a second compound for increasing the transport of bile acids out of the liver. Ursodeoxycholic acid is a hydrophilic bile acid that increases bile acid transporter expression and plasma membrane translocation in the liver, (palliative compounds 1 and 2). The study design included four cynomolgus monkeys (two male, two female) per group. The animals were assigned to the following groups [table] Duration and frequency: three administrations at 7-day interval (i.e. day 0, day 7 and day 14). The first day of dosing was designated as day 0. After the last administration, the animals were kept for a treatment-free period of at east 28 days.

[4] = test system: cynomolgus monkeys; details: cynomolgus monkey, in vivo
From the text: as §1, §2, §3, §4

B1: U4-3: human anti-FGFR4 antibody, VH SEQ ID NO: 54, VL SEQ ID NO: 62; test item of the monkey study (antibody, V domains shown)
VH: EVQLLESGGGLVQPGGSLRLSCAASGFTFSDYYMSWIRQAPGKGLEWVSTISGSGGSTYYADSVKGRFTISRDNSKNTLYLQMNSLRAEDTAVYYCARLTAYGHVDSWGQGTLVTVSSASTKGPSVFPLAPSS
VL: QSVLTQPPSASGTPGQRVTISCSGSSSNIGTNTVNWYQQLPGTAPKLLIYRNYQRPSGVPDRFSGSKSGTSASLAISGLRSEDEADYYCAAWDDSLSGPHVVFGGGTKLTVLGQP
modifications: U4-3-VH and U4-9-VH; U4-3-VL
notes: test item of the monkey study
Liver Cyp7A gene expression at study end [1]: elevated | FGF19 expression levels in the ileum at end of study [2]: elevated | Human IgG levels in serum [3]: equal in all treatment groups | Toxicological parameters (clinical signs, hematology, blood chemistry and histopathology) [4]: elevated | Histopathological examination of the liver ([4]; iv, 100 mg/kg): minimal bile duct hyperplasia
